Test results published in the supplement of paper PMC12217912.
This is one part of the list. Sequences were assembled here from the parent chain. Inactive controls read about 0.05.

B1: TEV protease; numbered along this chain (parent)
chain: MGESLFKGPRDYNPISSSICHLTNESDGHTTSLYGIGFGPFIITNKHLFRRNNGTLVVQSLHGVFKVKDTTTLQQHLVDGRDMIIIRMPKDFPPFPQKLKFREPQREERICLVTTNFQTKSMSSMVSDTSCTFPSGDGIFWKHWIQTKDGQCGSPLVSTRDGFIVGIHSASNFTNTNNYFTSVPKNFMELLTNQEAQQWVSGWRLNADSVLWGGHKVFMVKPEEPFQPVKEATQL

Variants of: B1
Experiment: raw area under fraction-flipped curve 0-4 h after induction (AUC4h, not background-subtracted), DNA-recorder readout of cleavage of the substrate (dimensionless); higher = more cleavage of the substrate by the protease variant
Settings: temperature: 34 °C; time window: 0-4 h after rhamnose induction
Description: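 In vivo DNA recorder in E. coli TOP10(DE3) ΔrhaA at 34 °C. Each TEVp single-site mutant (parent TEVp 0) is paired with a single-site variant of the 7-mer TEVs (canonical ENLYFQ|S). The substrate sits between flexible linkers in a Bxb1-sfGFP-TEVs-SsrA fusion, so cleavage stabilises Bxb1 and speeds flipping of a recombination array, read by NGS. The value is the raw area under the fraction-flipped curve over 0-4 h after rhamnose induction (AUC4h), with ≥20 reads per time point. It is not background-subtracted; inactive controls average about 0.047.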
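Further: Bxb1 expression induced with 0.2% (w/v) L-rhamnose at OD600 near 0.5, cultures sampled hourly, flipped fraction per protease–substrate barcode pair counted by paired-end Illumina sequencing.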

Variant	area with substrate GNLYFQS	area with substrate WNLYFQS	area with substrate HNLYFQS	area with substrate INLYFQS	area with substrate KNLYFQS	area with substrate PNLYFQS	area with substrate SNLYFQS	area with substrate TNLYFQS	area with substrate YNLYFQS	area with substrate MNLYFQS
F92G	0.0564	0.0639								
P93C	0.0725		0.04	0.0743	0.0654	0.0604	0.0656	0.0701	0.0523	
Q97D	0.0476						0.0953			0.0729
Q97E	0.0709								0.0443	
Q97N	0.0717					0.0661	0.0605			
L99K	0.0612				0.0585		0.0388	0.0532		
L99V	0.0643	0.0552	0.0499	0.0673	0.0617	0.0658	0.0524	0.065	0.0547	0.0616
K100Q	0.0738		0.0743	0.0994			0.0565	0.0486	0.0585	0.0569
E103S	0.0772	0.0557						0.0451		0.0692
R106N	0.0698		0.074		0.0663	0.0734		0.0469		
N116W	0.0604		0.059			0.088			0.0477	
F117P	0.065		0.0733		0.0641			0.0694	0.0468	
T119Q	0.0829	0.0593			0.0613					
M125Y	0.0468	0.0587	0.0677	0.0712		0.0661	0.0568	0.0611	0.0705	
T129H	0.121		0.0769					0.0783		0.0669
C131I	0.0348			0.058				0.0773		
P134R	0.0774	0.061	0.0668	0.058	0.0579	0.0609	0.0146	0.0621	0.075	0.0689
S135L	0.0666	0.0619	0.0585				0.0912			
D137H	0.0709					0.0738			0.0579	0.069
D137S	0.0804	0.0783		0.0706		0.0518	0.0603			
D137T	0.0612		0.0673			0.0733	0.0554			0.0847
I139T	0.112			0.0588				0.0617		0.0913
W141F	0.0484			0.0922		0.0574	0.0445	0.0728	0.0622	0.0519
K148L	0.0742	0.0606	0.0776				0.0705	0.0625	0.0635	
G150A	0.0563					0.059				

Variant	area with substrate GNLYFQS	area with substrate WNLYFQS	area with substrate HNLYFQS	area with substrate INLYFQS	area with substrate KNLYFQS	area with substrate PNLYFQS	area with substrate SNLYFQS	area with substrate TNLYFQS	area with substrate YNLYFQS	area with substrate MNLYFQS
G153I	0.0564		0.0426				0.031			
G153L	0.0398						0.0578		0.037	0.0455
G153T	0.0636		0.0541	0.0478	0.0517		0.0485	0.0468	0.0463	0.0633
S158L	0.0533		0.042							
S158V	0.0594	0.0436	0.0426		0.0468	0.043		0.0504		
F163A	0.0668					0.0717				
A170I	0.0645			0.0466						
A170W	0.0686	0.0503	0.0583	0.0522	0.0592	0.0513		0.0728	0.0524	
N172P	0.0588		0.0561		0.0474	0.0934	0.0666	0.0605	0.0413	0.0339
T174G	0.0595	0.058	0.0649	0.0582	0.0713	0.0523			0.0979	0.0638
N175S	0.0621								0.0604	
N177Q	0.0817									
N178S	0.0706	0.065	0.0515					0.0718	0.0578	0.0626
T181E	0.0479		0.0589		0.0474			0.0547		
V183G	0.0453	0.0503	0.0509		0.0724		0.0412	0.0543		0.0442
M188R	0.0853		0.064			0.0522		0.0814	0.0638	
E189L	0.0612		0.0638	0.0678		0.0606	0.0653	0.0584	0.0339	
L191Q	0.0538	0.0493		0.0516		0.0507		0.04	0.0327	0.0645
N193Y	0.0597	0.0639	0.059	0.0666	0.0812					
Q194A	0.0443				0.0675	0.0714		0.064		0.0662
Q197I	0.0712	0.0618	0.0726			0.0429	0.0841		0.0607	
Q198P	0.0621	0.0514	0.0651	0.0631	0.0546	0.0845	0.067			
S201C	0.0634	0.0706		0.0584	0.0486	0.0639	0.0923	0.0595	0.0588	
S201N	0.0699	0.0694	0.0587	0.0521	0.0593	0.0721		0.0676		

Same assay, conditions: temperature: 34 °C; time window: 0-4 h after rhamnose induction

Variant	area with substrate NNLYFQS	area with substrate VNLYFQS	area with substrate LNLYFQS	area with substrate QNLYFQS	area with substrate RNLYFQS
Q97D	0.0642				
L99K	0.0683				
L99V	0.0584	0.0799			
K100Q			0.0568	0.0561	
E103S			0.0631		
R106N	0.0683	0.0721			
N116W	0.0622	0.046	0.0588		
F117P			0.0472		
M125Y			0.0625		
T129H	0.066				
C131I		0.0657		0.0686	
P134R		0.0535	0.0604		0.0684
S135L		0.0904	0.0503		
D137H	0.0619		0.0797		
D137S		0.0726			
D137T			0.0604		
I139T	0.0847		0.0729		

Variant	area with substrate NNLYFQS	area with substrate VNLYFQS	area with substrate LNLYFQS	area with substrate QNLYFQS	area with substrate RNLYFQS
K148L				0.0575	
G153I			0.057		
G153L	0.0482		0.043		
S158V	0.0497		0.0492		0.0602
N172P			0.0242	0.0555	
T174G	0.0417	0.0757	0.0587		
N175S	0.0585	0.0623			
N178S		0.0681	0.0886		
T181E			0.0603		
V183G	0.041	0.0447	0.0444		
M188R	0.0722				0.0619
E189L	0.0632	0.0463	0.0609	0.0598	0.0621
L191Q	0.0604			0.0548	
Q194A	0.0638	0.07	0.0525		
Q198P	0.0549	0.0604			
S201C	0.0776				
S201N		0.0625	0.0608		
